# Among all 110,000 compounds or so, about 230 (0.21%) showed an effect of 50% or more. The list shows a part of the results.
# Molecular target: DPAP1 (Plasmodium falciparum, UniProt Q8IIJ9)
# Assay: primary screen, percent inhibition; read by cleavage of a fluorogenic dipeptide substrate; higher = more effect of the substance
# Design: species or system P. falciparum D10 trophozoite lysates; single well
# 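Note: 30 min substrate incubation versus DMSO and 10 µM JCP410 controls.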
# DPAP1, sequence (Q8IIJ9 whole entry, looked up): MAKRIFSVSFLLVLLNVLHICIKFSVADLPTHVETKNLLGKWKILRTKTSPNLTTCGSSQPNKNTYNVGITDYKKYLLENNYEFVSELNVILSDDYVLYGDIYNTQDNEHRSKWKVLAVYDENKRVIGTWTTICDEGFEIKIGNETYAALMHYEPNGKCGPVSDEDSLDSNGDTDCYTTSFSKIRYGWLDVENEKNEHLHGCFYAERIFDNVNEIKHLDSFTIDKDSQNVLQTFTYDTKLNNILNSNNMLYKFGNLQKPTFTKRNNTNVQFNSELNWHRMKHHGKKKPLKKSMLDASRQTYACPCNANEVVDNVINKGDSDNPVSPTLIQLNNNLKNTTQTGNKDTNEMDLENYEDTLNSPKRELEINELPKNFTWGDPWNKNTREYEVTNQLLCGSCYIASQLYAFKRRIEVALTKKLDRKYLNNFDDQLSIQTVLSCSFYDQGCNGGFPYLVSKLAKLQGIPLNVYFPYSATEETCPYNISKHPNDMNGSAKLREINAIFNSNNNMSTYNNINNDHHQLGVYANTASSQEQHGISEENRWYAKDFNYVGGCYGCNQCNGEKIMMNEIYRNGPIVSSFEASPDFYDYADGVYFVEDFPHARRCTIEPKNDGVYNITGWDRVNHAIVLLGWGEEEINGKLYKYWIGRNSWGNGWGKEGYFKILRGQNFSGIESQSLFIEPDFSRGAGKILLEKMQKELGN
row,Structure (SMILES),% Inhibition @ 10 uM [%]
1,COC(=O)C(=C/C=C/c1ccccc1)C(=O)OC,0.0719
2,Cc1nn(-c2ccccc2)c(O)c1/C=N/CCO,25.4
3,CC1=C(C(=O)N(C)C)C(c2cccc(Cl)c2)n2c(nc3ccccc32)N1 (centres unmarked),-9.03
4,O=C1c2ccccc2C(=O)C1(c1ccccc1)N1CCCCC1,2.22
5,Cc1ccc(S(=O)(=O)N2CCN(S(=O)(=O)N3CCOCC3)CC2)c(C)c1,-5.67
6,CCN(CC)CCNC(=O)C(NC(=O)C1CCC(C)CC1)C(C)C (centres unmarked),0.505
7,O=C(O)C1C2C=CC(C2)C1C(=O)NCCC(c1ccccc1)c1ccccc1 (centres unmarked),2.48
8,CC(=O)N1CCc2c(sc3c2c(=O)n(Cc2ccccc2)c(=O)n3Cc2ccc(F)cc2)C1,-3.44
9,CCC(=O)N1N=C2c3ccc(OC)cc3CCC2C1c1ccccc1 (centres unmarked),10.6
10,Cc1nn(C(C)C(=O)N2CCN(Cc3ccccc3)CC2)c(=O)c2nn(-c3ccccc3)c(C)c12 (centres unmarked),-5.74
11,O=C1N/C(=C/c2ccc3c(c2)OCCO3)C(=O)N1Cc1ccccc1F,5.24
12,COc1ccc(C2NC(=O)N(C)C(C)=C2C(=O)Nc2ccccc2C)cc1 (centres unmarked),0.177
13,CC(C)Cn1cc(C(=O)NC2CCN(Cc3ccccc3)CC2)c2c3ccccc3n(C)c2c1=O,-1.84
14,O=C(NCc1ccccn1)C1CCN(c2ncccn2)CC1,-0.946
15,CC(CNC(=O)Cn1ncc2ccccc21)c1ccccc1 (centres unmarked),0.0198
16,Cc1cc(N2CCNCC2)nc2c(C)c(Cl)ccc12,-0.233
17,CC1CCCCN1S(=O)(=O)c1ccc(CCN)cc1 (centres unmarked),-1.24
18,CC(=O)N1CCN(CCNC=C2C(=O)N(C3CCCCC3)C(=O)N(C3CCCCC3)C2=O)CC1,5.24
19,CC1CCN(Cc2nnc(-c3ccc4c(c3)OCO4)o2)CC1,-0.0709
20,O=C(O)c1ccc(-n2nnnc2-c2ccccc2)cc1,4.41
21,COc1ccc(CCCC(=O)Nc2ccc(F)cc2)cc1C,3.86
22,CCOc1ccc(-c2nc(-c3ccc(C)cc3)no2)cc1,7.76
23,Cc1ccccc1Cn1c(=O)n(CCC(C)C)c(=O)c2cccnc21,-1.66
24,CC1C/C(=C\c2cccnc2)C(=O)/C(=C/c2cccnc2)C1 (centres unmarked),6.2
25,CCC12CN3CC(C)(CN(C1)C3c1cccc(Br)c1)C2=O (centres unmarked),-3.08

row,Structure (SMILES),% Inhibition @ 10 uM [%]
1,CC(CNC(=O)c1cccs1)NC(=O)c1cccs1 (centres unmarked),-1.79
2,O=C1/C(=C/c2ccc3nccnc3c2)CN(Cc2ccccc2)C/C1=C\c1ccc2nccnc2c1,6.89
3,N#CCNC(=O)[C@H](Cc1c[nH]c2ccccc12)NC(=O)c1ccccc1,-0.214
4,CC1CN(C2CC(=O)N(c3ccccc3)C2=O)CC(C)O1 (centres unmarked),-2.53
5,CC(=O)Nc1cc2c(s1)C1(CCCCC1)CC(=O)N2,-0.872
6,Cc1cc(C)cc(N(CC(=O)NC2CC2)S(=O)(=O)c2ccccc2)c1,-6.86
7,COc1ccc2c(C)c(CC(=O)N3CCCCC3)c(=O)oc2c1C,4.13
8,COc1ccc(OC)c(/C=C2\N=C(C3CCCCC3)OC2=O)c1,6.25
9,Cc1cc(C)cc(NCC(=O)Nc2c(C)cccc2C)c1,-7.55
10,CCn1ncc(CN(C)C(=O)c2cnn3c(C(F)F)cc(-c4ccc(OC)cc4)nc23)c1C,1.28
11,CCOC(=O)c1c(NC(=O)C(CC)Sc2nc(N)cc(O)n2)sc2c1CCCC2 (centres unmarked),1.63
12,CC(=O)c1ccc(NC(=O)C2CC(=O)OC2c2ccccc2)cc1 (centres unmarked),-4.61
13,COc1ccc(CC(=O)N(Cc2nc(-c3ccc(C)cc3)no2)C(C)C)cc1OC,-4.94
14,Cc1ccc(Cl)cc1NC(=O)C1C2C=CC(C2)C1C(=O)O (centres unmarked),-3.49
15,CCSC1=C(C#N)C(c2ccccc2)C(C(=O)Nc2ccccc2)=C(C)N1 (centres unmarked),-2.47
16,Cc1ccc(OCCCn2ccnc2)c(C)c1,1.35
17,CCOc1ccccc1C1C(C#N)=C(N)OC2=C1C(=O)CC(C)(C)C2 (centres unmarked),-4.33
18,C=CCN1C(=O)NC(=O)/C(=C/c2ccc(OCc3ccc(Cl)cc3)cc2)C1=O,1.25
19,c1ccc(-c2nc3c4ccccc4nc(NCCN4CCCC4)n3n2)cc1,0.981
20,CCNC(=O)c1c(NC(=O)Cc2coc3ccc(C)cc23)sc2c1CCCC2,-0.671
21,COc1ccccc1CNC(=O)CN(Cc1ccccc1)S(=O)(=O)c1ccc(F)cc1,1.27
22,O=C1/C(=C\c2ccccn2)CN(Cc2ccccc2)C/C1=C\c1ccccn1,55.7
23,COc1ccc(NS(=O)(=O)c2ccc(NC(=O)c3ccccc3OC)cc2)c(OC)c1,4.57
24,CCC(Cc1ccccc1)NC(=O)c1csc2c1CCCC2 (centres unmarked),0.277
25,O=C(/C(=C/c1ccc(O)cc1)c1nc2ccccc2[nH]1)c1ccccc1,4.52
